# Values joined by “and” are separate entries in the source; they are usually repeats but may differ in a detail not shown here. Equal values may be shown once. Screen size: about 150,000 compounds; about 6,500 (4.3%) were called active. The shares of active, inactive and inconclusive entries below differ from those in the screen. Calls come from the whole dose curve; as a rule, active = well fitted inhibition curve with a large enough effect (not every such curve was filed as active); inconclusive = small, poorly fitted or top-dose-only effect, or another doubt; inactive = no such curve, though single readings can be large or run the other way. Potencies beside an inconclusive call are fits to weak or partial responses and may not hold up. Some compounds were tested as several samples or in several runs, with calls that do not always agree.
# Molecular target: 15-hydroxyprostaglandin dehydrogenase [NAD(+)] (Homo sapiens) (UniProt P15428)
# Assay: qHTS Assay for Inhibitors of HPGD (15-Hydroxyprostaglandin Dehydrogenase)
# Details: purified HPGD, NADH fluorescence kinetic, PGE2 substrate; activity change, negative = inhibition: active compounds read low
# Procedure, shortened: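 20 nM HPGD preincubated 15 min at room temperature with compound in 50 mM Tris-HCl pH 8, 0.01% Tween 20. Started with 1 mM NAD+ and 30 uM prostaglandin E2; NADH fluorescence (360/450 nm) read 5 times over 30-s intervals, last minus first.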
# % is set by controls: 0 for no effect and ±100 for the full control effect; potency is the fitted concentration of half-maximal effect; tags give direction and shape of the fitted curve.
# Chain of UniProt P15428 (P15428 whole entry, looked up): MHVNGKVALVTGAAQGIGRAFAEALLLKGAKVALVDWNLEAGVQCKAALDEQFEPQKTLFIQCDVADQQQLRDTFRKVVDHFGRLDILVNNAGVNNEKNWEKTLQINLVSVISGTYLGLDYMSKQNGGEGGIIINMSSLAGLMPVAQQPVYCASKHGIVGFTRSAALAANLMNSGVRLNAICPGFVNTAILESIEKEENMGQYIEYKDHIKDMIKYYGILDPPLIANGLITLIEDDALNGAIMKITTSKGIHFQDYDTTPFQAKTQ
SMILES,Potency,"activity change, negative = inhibition"
O=C(c1ccc2nc(N3CCOCC3)sc2c1)N1CCCC1,active: 14.1 µM,–
O=C(Nc1cccc(NC(=O)c2ccc(Br)o2)n1)c1ccc(Br)o1,"inconclusive: 14.1 µM [inhibitor, partial curve]",–
CCc1nc2ccccc2c(C(=O)OCc2nnc(-c3ccccc3)o2)c1C,active: 20 µM,–
CCCCC1C(=O)N(c2ccccc2)N(c2ccc(O)cc2)C1=O (configuration not stated),"inconclusive: 39.8 µM [inhibitor, single point]",–
CCSc1nnc(NC(=O)CSc2nnc(CNC(=O)c3ccccc3F)o2)s1,–,inactive: -17.3%
Oc1ccccc1C1=NOC(O)(C(F)F)C1 (configuration not stated),active: 15.8 µM,–
O=C(CCS(=O)(=O)c1cccc2nsnc12)N1CC(=O)N(CCc2ccccc2)C(=O)C1,–,inactive: -21.9%
Nc1nnc(Cc2ccccc2)s1,–,inactive: -9.05%
O=C(CCBr)N1CCN(C(=O)CCBr)CC1,"inconclusive: 39.8 µM [inhibitor, single point]",–
Cc1nn(CCC(=O)NNC(=S)Nc2cccc(Cl)c2)c(C)c1[N+](=O)[O-],"inconclusive: 28.2 µM [inhibitor, partial curve]",–
CCOC(=O)/C(C#N)=C/c1ccc(OCC(=O)Nc2ccccc2)c(OC)c1,"inconclusive: 14.1 µM [inhibitor, partial curve]",–
Cn1c(Cn2nnc(-c3ccccc3)n2)nnc1SCc1ccccc1Cl,"inconclusive: 20 µM [inhibitor, partial curve]",–
CC(=O)N(C)c1ccc(NC(=O)c2cnn(C)c2)cc1,–,inactive: -7.04%
CCOC(=O)c1sc(NC(=O)CSc2nnc(Cc3ccccc3)o2)c(C#N)c1C,active: 2 µM,–
CC(C)CC(=O)Nc1ccc(-c2nc3ccccc3c(=O)o2)cc1,"inconclusive: 25.1 µM [inhibitor, partial curve]",–
CC1CCN(c2ccccc2NC(=O)c2ccc(F)cc2)CC1,"inconclusive: 39.8 µM [inhibitor, partial curve, poor fit]",–
COc1cc(OC)c2ccc(=O)oc2c1,"inconclusive: 15.8 µM [inhibitor, partial curve]",–
O=C(NCc1ccc2c(c1)OCO2)c1ccc(-c2ccc(Cl)cc2)o1,"inconclusive: 35.5 µM [inhibitor, single point]",–
Cc1nc2c(ccc3nc(NC(=O)c4ccc5c(c4)OCCO5)sc32)s1,"inconclusive: 25.1 µM [inhibitor, partial curve]",–
Cc1ccc(C(C)NC(=O)C2CCCO2)cc1C (configuration not stated),active: 15.8 µM,–
O=C(Nc1ccc(-n2ccnc2P(=O)(O)c2ccccc2)cc1)c1ccccc1Br,"inconclusive: 28.2 µM [inhibitor, partial curve]",–
COCCSc1ccccc1C(=O)Nc1nnc(COC)s1,"inconclusive: 31.6 µM [inhibitor, single point]",–
COc1cc(/C=C2\SC(N)=NC2=O)ccc1OCC(=O)Nc1ccc(C)cc1,active: 4.47 µM,–
CN1CCc2c(sc(N)c2C(N)=O)C1,"inconclusive: 17.8 µM [inhibitor, partial curve]",–

SMILES,Potency,"activity change, negative = inhibition"
COc1ccccc1N(CC(=O)NCc1ccccc1)C(=O)CCC(=O)Nc1cc(C)ccn1,–,inactive: -1.18%
Cc1nnc(SCC(=O)c2cc(C)n(-c3c(C)n(C)n(-c4ccccc4)c3=O)c2C)s1,–,inactive: -7.24%
Cc1cc(=O)oc2cc(OCc3ccc(S(=O)(=O)N4CCOCC4)cc3)ccc12,"inconclusive: 17.8 µM [inhibitor, partial curve]",–
COc1ccccc1-c1cc(C(F)(F)F)nc(NCc2cccs2)n1,"inconclusive: 25.1 µM [inhibitor, single point]",–
O=S(=O)(NCC1CCCO1)c1ccc(S(=O)(=O)N(Cc2ccc(F)cc2)Cc2ccccn2)cc1 (configuration not stated),"inconclusive: 8.91 µM [inhibitor, single point]",–
CCc1nnc(NC(=O)CSc2nc(-c3ccccc3)cc(-c3ccc(OC)cc3)c2C#N)s1,"inconclusive: 25.1 µM [inhibitor, partial curve]",–
COCc1cc(=O)n2[nH]c(-c3ccc(C)cc3)cc2n1,"inconclusive: 28.2 µM [inhibitor, partial curve]",–
N#Cc1c(NC(=O)c2cccnc2)sc2c1CCC2,–,inactive: -2.3%
O=C(Nc1ccccc1)N1CCC2(CC1)CCN(C(=O)c1ccncc1)CC2,–,inactive: -2.02%
O=C(CN1CCCCC1)Nc1ccc(S(=O)(=O)N2CCCCCC2)cc1,–,inactive: -1.3%
COc1cc(OC)c(OC)cc1/C=N/Nc1ncnc2c1[nH]c1ccccc12,"inconclusive: 25.1 µM [inhibitor, partial curve]",–
O=C(c1ccccn1)N1N=C2/C(=C/c3ccccc3)CCCC2C1c1ccccc1 (configuration not stated),"inconclusive: 28.2 µM [inhibitor, single point]",–
CC(C)(C)CC(C)(C)c1ccc(O)c(C[N+](C)(C)[O-])c1,–,inactive: -14.9%
CCOC(=O)c1sc(NC(=O)CSc2ncn[nH]2)c(C#N)c1C,–,inactive: -13.2%
COc1ccc(C(=O)Nc2ccc(N3CCN(c4ccc(OC)cc4)CC3)c(C#N)c2)cc1,"inconclusive: 25.1 µM [inhibitor, partial curve]",–
CCCCn1c(-c2cccs2)nc2nc3ccccc3nc21,"inconclusive: 7.94 µM [inhibitor, full curve]",–
COc1cc(NC(=O)C2CC(c3cccc(OC)c3OC)=NO2)cc(OC)c1OC (configuration not stated),"inconclusive: 35.5 µM [inhibitor, single point]",–
Nc1nccnc1C(=O)OCC(=O)Nc1cccc(S(=O)(=O)N2CCCCC2)c1,"inconclusive: 25.1 µM [inhibitor, partial curve]",–
O=C(CSc1nc(O)cc(=O)[nH]1)C1CC1,active: 17.8 µM,–
CC(=O)c1ccc(OCCCC(=O)NC2=NCCS2)cc1,"inconclusive: 28.2 µM [inhibitor, partial curve]",–
CCc1cc2c(=O)c(-c3nc4ccccc4n3C)c(COCC(=O)O)oc2cc1O,"inconclusive: 15.8 µM [inhibitor, partial curve]",–
O=c1[nH]n(-c2cccc(Cl)c2)c2ncccc12,active: 6.31 µM,–
S=P(c1ccc(N2CCOCC2)cc1N1CCOCC1)(N1CCOCC1)N1CCOCC1,active: 25.1 µM,–
CCc1cc[n+](C2=C([O-])c3ccccc3C(=O)/C2=N\S(=O)(=O)c2cccs2)cc1,–,inactive: -10%

SMILES,Potency,"activity change, negative = inhibition"
COc1nc(-c2ccccc2)ccc1-c1noc(COc2ccccc2)n1,"inconclusive: 14.1 µM [inhibitor, partial curve]",–
O=C(O)[C@@H](O)[C@@H](O)[C@H](O)[C@H](O)CO,–,inactive: -4.22%
CCOC(=O)Cc1c(C)nc2c(C#N)c(C)nn2c1C,"inconclusive: 35.5 µM [inhibitor, single point]",–
COC(=O)c1sc2nc(SCc3ccccc3C#N)n(N)c(=O)c2c1C,"inconclusive: 31.6 µM [inhibitor, partial curve]",–
COc1ccc(OC)c(C(=O)c2nc3c(n2O)CCCCC3)c1,"inconclusive: 35.5 µM [inhibitor, single point]",–
CCNC(=S)N/N=C/c1ccc(OCC(=O)Nc2ccc(C)cc2)cc1,–,inactive: -20.8%
COCCNC(=O)c1cccc(C)c1[N+](=O)[O-],"inconclusive: 22.4 µM [inhibitor, partial curve, poor fit]",–
O=C(CCCCCn1c(=O)[nH]c2ccsc2c1=O)NCc1cccs1,"inconclusive: 35.5 µM [inhibitor, partial curve]",–
COC(=O)c1cc(NC(=S)Nc2cc(Cl)cc(Cl)c2)cc(C(=O)OC)c1,"inconclusive: 31.6 µM [inhibitor, partial curve]",–
N#Cc1nc(COc2ccccc2F)oc1NCc1ccc(F)cc1,active: 20 µM,–
COc1cc2nc(N3CCN(C(=O)C4COc5ccccc5O4)CC3)nc(N)c2cc1OC (configuration not stated),"inconclusive: 31.6 µM [inhibitor, partial curve] and inconclusive: 20 µM [inhibitor, partial curve]",–
O=c1c2nnn(Cc3ccccc3)c2ncn1C/C=C/c1ccccc1,active: 14.1 µM,–
COc1cc(C=O)ccc1OCCOCCOc1ccc(Cl)cc1,–,inactive: -28.9%
CC(=O)Nc1ccc(OC(=O)c2ccccc2O)cc1,"inconclusive: 25.1 µM [inhibitor, partial curve]",–
O=C(Nc1cccn2ncnc12)c1ccc(Cl)cc1Cl,"inconclusive: 25.1 µM [inhibitor, single point]",–
Cc1ccc(Nc2nc(N)nc(CC#N)n2)cc1,–,inactive: -1.29%
O=c1c(O)c(-c2ccc(O)cc2)oc2cc(O)cc(O)c12,active: 28.2 µM,–
COCc1cc(/C=N\NC(=O)COc2ccc(Cl)cc2)ccc1OC,"inconclusive: 31.6 µM [inhibitor, partial curve]",–
Cc1nn(CC(=O)NCCc2ccc(Cl)cc2Cl)c(C)c1[N+](=O)[O-],"inconclusive: 31.6 µM [inhibitor, partial curve]",–
O=C(CSc1nnc2ccccn12)N1CCOCC1,"inconclusive: 39.8 µM [inhibitor, single point]",–
Cc1cccc(-c2nnc3n2N=C(c2ccccc2)CS3)c1,–,inactive: -11.8%
O=C(O)C1CC=CCC1C(=O)NCc1cn2ccccc2n1 (configuration not stated),"inconclusive: 14.1 µM [inhibitor, partial curve]",–
CCOC(=O)c1cccc(NC(=O)c2cccnc2)c1,–,inactive: -9.49%
CCOc1ccccc1CNC(=O)c1cc2oc3ccccc3c2n1CC,"inconclusive: 35.5 µM [inhibitor, partial curve]",–

# Reference: PubChem BioAssay AID894 (National Center for Advancing Translational Sciences (NCATS), 2007)
